Assay results reported in the supplement of paper PMC3334620.
Whole data set: some 33,000 sequences, median “E-score (-0.5 to 0.5)” near -0.056, cut for the highest 2% near 0.38. The list shows a part of the results.

Target: Stb4 (UniProt P50104)
Assay: PBM E-score (8-mer binding enrichment) (E-score (-0.5 to 0.5)); higher = stronger / more preferred TF binding; most listed sequences are background and not binding sites
Details: protein concentration: 200 nM; construct: GST-DNA-binding domain
In short: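 Detection of bound protein used fluorescent anti-GST, with scans normalised by masliner. The proteins were GST-tagged yeast transcription factors applied at about 100-200 nM to universal all-10-mer Agilent arrays made double-stranded by primer extension. Each ungapped eight-base word, pooled with its reverse complement, was scored with an E-score from the Universal PBM Analysis Suite.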

Row | Sequence | PBM E-score
1 | CGCGTGGA | -0.199
2 | CGTGGCAG | -0.212
3 | GTTAGGGA | -0.176
4 | ATGACGAC | 0.0312
5 | GTCAACCA | -0.143
6 | CGTCATTA | -0.11
7 | CGTTTATC | 0.0105
8 | ATCATCCC | 0.052
9 | AACCAACA | -0.0899
10 | ACTAAACA | -0.243
11 | ATAGTGGG | 0.0744
12 | ACCACGCG | -0.102
13 | AGAGAGCT | -0.238
14 | CCAGGCCG | 0.0556
15 | CGCACATA | -0.185
16 | CAAAAGGA | -0.068
17 | AGTTGGGG | -0.0708
18 | ATTCAAGA | 0.0992
19 | GACGAACA | 0.0847
20 | CGCTAGTC | -0.265
21 | GGCAGAAA | 0.172
22 | GTCCTCAC | -0.103

Row | Sequence | PBM E-score
23 | AAGTACAC | -0.143
24 | CTCGTCTA | -0.198
25 | AACGGCTA | 0.16
26 | ATAGGCCC | 0.065
27 | AAGCAATA | -0.153
28 | ACATTAAC | -0.0715
29 | CTCCTTAC | -0.111
30 | AGCGTCCT | -0.32
31 | AGTTCCGC | 0.324
32 | ACGAGGAT | -0.283
33 | GTTTTTCA | 0.0393
34 | ATCGCATA | -0.0126
35 | GAAAACCA | -0.0221
36 | ATGGGATA | -0.14
37 | ATCCAAAT | -0.0303
38 | TGACTCAA | -0.149
39 | CCCTCTTC | -0.254
40 | ATTCCCAA | -0.115
41 | GCGGGCCC | 0.102
42 | GGTCCTTA | 0.00441
43 | AGATTCCG | 0.389
44 | ACTGCTCA | -0.0464

Row | Sequence | PBM E-score
45 | ACAGCCGG | 0.35
46 | ACCAAGCA | -0.101
47 | CATATTAA | -0.111
48 | CCATTTTC | -0.0108
49 | AGTTATGC | 0.011
50 | ACCGCCTA | -0.0476
51 | ACAGCACC | 0.0374
52 | GGTTTGGA | -0.0921
53 | AGTTATAA | -0.137
54 | ATGTCGTG | -0.217
55 | CGCATGTA | -0.0158
56 | CGTACAAG | -0.0603
57 | CTAATTCA | -0.231
58 | ACTGTTAC | -0.0793
59 | AAGCTCGA | 0.0225
60 | ATGTCTGA | -0.082
61 | CAGTGAAA | 0.103
62 | ATCCAGCA | -0.289
63 | GCGTATAC | 0.0318
64 | GGTCAGCA | 0.0977
65 | CCGCATAC | 0.103
66 | AGGAGAAC | -0.179

Row | Sequence | PBM E-score
67 | CGTTGTAC | -0.235
68 | ATGGAGTA | 0.0161
69 | GTGAGGGA | -0.209
70 | TAAGCACA | -0.0266
71 | GTCCTCAA | -0.105
72 | AATTCTGA | -0.159
73 | CGGGTCCC | 0.19
74 | GACGCGGA | 0.265
75 | CAACGTCG | 0.11
76 | ATCCCATG | -0.18
77 | ATGTGCTC | -0.0759
78 | CTCAAGGC | 0.065
79 | ATACACTC | 0.144
80 | CCCGGGCC | 0.312
81 | ATGTGGCG | 0.00435
82 | GTGTATAA | -0.247
83 | GCCCTCGC | -0.141
84 | CCGACTGA | 0.24
85 | AATAGGGT | -0.0319
86 | CCGACGCC | 0.343
